The RNAGym collection of RNA variant scans (doi:10.7554/elife.90254)
Read counts are not given, so values of variants with three or more changes are uncertain.

B1: LINE1-mini (parent)
chain: GGCAGAGCUCAACACAGCGUGGCAAAGUGGCUGUGGCUAGACUGCC

Variants of: B1
Experiment: self-cleavage, relative activity (ratio to wild type); higher = more cleavage; in vitro, sequencing; the parent is a self-cleaving ribozyme
In the case of GGCAGUGCUCAACAAAGCGUGGCAAAGUGGCUGUGGCGAGACUGGC, the self-cleavage is reported as 0.01. Work on GGCAGUGCUCAACAGAGCGUGGCAAUGUGGCUGUGGCUAGACUGCC yielded a self-cleavage of 0.05. GGCAGUGCUCAACAGAGCGUGGCAAAGUGGCUGUGGCUAGACUGGC gave a self-cleavage of 0.03. With GGCAGUGCUCAACAGAGCGUGUCAAAGUGGCUGUGGCUAGACUGCC the self-cleavage was 0.03. Work on GGCAGUGCUCAACAGAGCGUGGCAAAGUGGCUGAGGCUAAACUGCC yielded a self-cleavage of 0.03. Work on GGCAGUGCUCAACAUGGCGUGGCAAAGUGGCUGUGGCUAGACUGCC yielded a self-cleavage of 0.73. Variant GGCAGUGCUCAACAUUGCGUGGCAAAGUGGCUGUGGCUAGGCUGCC has a self-cleavage of 0.08. Work on GGCAGUGCUCAACAUACCGUGGCAAAGUGGCUGUGGAUAGACUGCC yielded a self-cleavage of 0.11. In the case of GGCAGUGCUCAACAUAGCCUGGCAAUGUGGCUGUGGCUAGACUGCC, the self-cleavage is reported as 0.3. In the case of GGCAGUGCUCAACAUAGCGUGGCAAAGUAGCUGUGACUAGACUGCC, the self-cleavage is reported as 0.36. Variant GGCAGUGCUCAACAUAGCGUGGCAAAGUGGCCGGGGCUAGACUGCC has a self-cleavage of 0.04. Work on GGCAGUGCUCAACACAGAAGGGCAAAGUGGCUGUGGCUAGUCUGCC yielded a self-cleavage of 0.19. Work on GGCAGUGCUCAACACAGGAUGGCAAAGUGGGUGUGGCUAGACCGCC yielded a self-cleavage of 0.04. GGCAGUGCUCAACACAGUCUGGCAAAGUGGCUGUGGCUAGACUGCC gave a self-cleavage of 0.25. GGCAGUGCUCAACACAGUGUGGCAAAGUGGCUGAGGCUAGACUGCC showed a self-cleavage of 0.05. Work on GGCAGUGCUCAACACAGCGUGGACAAGUGGCUGUGGCUAGCCUGCC yielded a self-cleavage of 0.06. In the case of GGCAGUGCUCAACACAGCGUGGAAAAAUGGCUGUGGCUAGACUGCC, the self-cleavage is reported as 0.58. Variant GGCAGUGCUCAACACAGCGUGGAAAAGUGGCUGUGGCUAGACUUCC has a self-cleavage of 0.1. Variant GGCAGUGCUCAACACAGCGUGGGAAAGUGGCGGUGGCUAGACUGCC has a self-cleavage of 0.07. Work on GGCAGUGCUCAACACAGCGUGGUAGAGUGGCUGUGGCUAGACUGCC yielded a self-cleavage of 0.5. For GGCAGUGCUCAACACAGCGUGGUAAAAUGGCUGUGGCUAGACUGCC, the self-cleavage was 2.46. GGCAGUGCUCAACACAGCGUGGUAAAGUUGCUGUGGCUAGACUGCC gave a self-cleavage of 1.44. Variant GGCAGUGCUCAACACAGCGUGGCAAAGUGGAUGUGGAUAGACUGCC has a self-cleavage of 0.06. For GGCAGUGCUCAACACAGCGUGGCAAAGUGGAUGUGGCUAGACUGGC, the self-cleavage was 0.04. For GGCAGUGCUCAACACAGCGUGGCAAAGUGGAUGUGUCUAGACUGCU, the self-cleavage was 0.06. With GGCAGUGCUCAACACAGCGUGGCAAAGUGGUUAUGGCUAGACUUCC the self-cleavage was 0.1. GGCAGUGCUCAACACAGCGUGGCAAAGUGGUUGUCGCUAGACUGAC gave a self-cleavage of 0.17. GGCAGUGCUCAACACAGCGUGGCAAAGUGGCUGUGGAUAGACUGCA gave a self-cleavage of 0.03. Work on GGCAGUGCUCAACACAGCGUGGCAAAGUGGCUGUGGGUAGCCUGCC yielded a self-cleavage of 0.02. Variant GGCAGUGCUCAACACAGCGUGGCAAAGUGGCUGUGGGUAGAUUCCC has a self-cleavage of 0.21. GGCAGUGCUCAACACAGCGUGGCAAAGUGGCUGUGGGUACACUGCC showed a self-cleavage of 0.01. With GGCAGUGCUCAACACAGCGUGGCAAAGUGGCUGUGGUUAGGCUUCC the self-cleavage was 1.04. In the case of GGCAGUGCUCAACACAGCGUGGCAAAGUGGCUGUGGUUAGAUUGCC, the self-cleavage is reported as 0.03. GGCAGUACUCAACACGGCGUGGCAAAGUGGCUGUGGCUAGACUGCC showed a self-cleavage of 0.07. GGCAGUACUCAACACUGCGUGGCAAAGUCGCUGUGGCUAGACUGCC showed a self-cleavage of 0.02. With GGCAGUACUCAACACAGCGUGGCAGAGUGGCUGUGGCUAGACUGCC the self-cleavage was 0.06. In the case of GGCAGUACUCAACACAGCGUGGCAAGGUGGCUGUGGCUAGACUGCA, the self-cleavage is reported as 0.05. GGCAGUAAUCAACACAGCGUGGCAAAGUGGCUGUGGCUAGACUGCC showed a self-cleavage of 0.45. GGCAGUACUAAAGACAGCGUGGCAAAGUGGCUAUUGCUAGACUGCC showed a self-cleavage of 0.06. Variant GGCAGUACUUAUCACAGCAUGGAAAAGUGGCUGUGGCAAGACUGCC has a self-cleavage of 0.01. With GGCAGUACUCAACAGAGCGUGGCAAAGUGGCUUUGGGUAGACUGCC the self-cleavage was 0.07. With GGCAGUACUCAACACAGUGUUGCAAAGUGGCUGUAUUUAGACUGCC the self-cleavage was 0.1. With GGCAGUACUCAACACAGCGUGGAAAAGUGGCUUUGGCUAGACUGCC the self-cleavage was 0.02. In the case of GGCAGUACUCAACACAACGUCGUAAAGUGGCUGGGGCUAGACUGCC, the self-cleavage is reported as 0.01. Variant GGCAGUACUCAACACAGCGUGGCAAAGUGCCUGUGGCCAGACUGCC has a self-cleavage of 0.06. GGCAGUACUCAACACAGCGUGGCAAAGCGGCUGUAGCUAGACUGCC showed a self-cleavage of 0.21. Work on GGCAGUACUCAACACAGCGUGGCAAAGUGGCCGUGGCUAGACUGCC yielded a self-cleavage of 0.03. In the case of GGCAGUCCUCGGCACAGCGUGGCAAAGUGGCUCUGUCUAGACUGCC, the self-cleavage is reported as 0.02. Work on GGCAGUCCUCUACACAGCAUGGCGAAGUGGCUGUGGCGAGAGUGCC yielded a self-cleavage of 0.01. GGCAGUCCUCACCACAACGUGGCAAAGUGGCUGUGGCUAGACUGCC showed a self-cleavage of 0.04. Variant GGCAGUCCUCAACACGGCGUGGAAAAGUGGCUGUGGCUAGACUGCC has a self-cleavage of 0.12. Work on GGCAGUCCUCAACACAGCGUGGCAAAGUGGCUGUGGCUUGACUGCC yielded a self-cleavage of 0.28. For GGCAGUCGUCAACACAGCGUGGCAAAGUGGCUGUGGCUAGAAUGCC, the self-cleavage was 0.41. Variant GGCAGUCCUGAACCCAGUGUGGCAAAGUGGCUGUGGCUAGACUGCC has a self-cleavage of 0. Variant GGCAGUCCUCAAUACAGCGUGGCAAAGUGGCAGUGGCUAGACUGCC has a self-cleavage of 0.05. For GGCAGUCCUCAACACAGCGUGGUAAAGUGGUUGUGGCUAGACUGCC, the self-cleavage was 0.28.
